From PubChem BioAssay AID720708 (National Center for Advancing Translational Sciences (NCATS), 2013)
About 660 (0.18%) of roughly 360,000 compounds were called active. Inconclusive means that the source gave no clear call. Such entries were picked first, then a sample of the others. Calls come from the whole dose curve; as a rule, active = well fitted inhibition curve with a large enough effect; inconclusive = small, poorly fitted or top-dose-only effect; inactive = no such curve, though single readings can be large or run the other way. No potency is given beside an inconclusive call; the fits are too rough.

molecular target: Rap guanine nucleotide exchange factor 4 (Homo sapiens) (UniProt Q8WZA2); assay: qHTS for Antagonist of cAMP-regulated guanine nucleotide exchange factor 2 (EPAC2): primary screen; conditions: EPAC2 GEF exchange of Rap1B-BODIPY-GDP, fluorescence; activity, negative = inhibition: at 114 µM (top of the series) unless noted; note: nearly all actives have a fitted effect of over 45% in size
% is set by controls: 0 for no effect and ±100 for the full control effect; potency is the fitted concentration of half-maximal effect; tags give direction and shape of the fitted curve.

Sequence of UniProt Q8WZA2 (Q8WZA2 whole entry, looked up): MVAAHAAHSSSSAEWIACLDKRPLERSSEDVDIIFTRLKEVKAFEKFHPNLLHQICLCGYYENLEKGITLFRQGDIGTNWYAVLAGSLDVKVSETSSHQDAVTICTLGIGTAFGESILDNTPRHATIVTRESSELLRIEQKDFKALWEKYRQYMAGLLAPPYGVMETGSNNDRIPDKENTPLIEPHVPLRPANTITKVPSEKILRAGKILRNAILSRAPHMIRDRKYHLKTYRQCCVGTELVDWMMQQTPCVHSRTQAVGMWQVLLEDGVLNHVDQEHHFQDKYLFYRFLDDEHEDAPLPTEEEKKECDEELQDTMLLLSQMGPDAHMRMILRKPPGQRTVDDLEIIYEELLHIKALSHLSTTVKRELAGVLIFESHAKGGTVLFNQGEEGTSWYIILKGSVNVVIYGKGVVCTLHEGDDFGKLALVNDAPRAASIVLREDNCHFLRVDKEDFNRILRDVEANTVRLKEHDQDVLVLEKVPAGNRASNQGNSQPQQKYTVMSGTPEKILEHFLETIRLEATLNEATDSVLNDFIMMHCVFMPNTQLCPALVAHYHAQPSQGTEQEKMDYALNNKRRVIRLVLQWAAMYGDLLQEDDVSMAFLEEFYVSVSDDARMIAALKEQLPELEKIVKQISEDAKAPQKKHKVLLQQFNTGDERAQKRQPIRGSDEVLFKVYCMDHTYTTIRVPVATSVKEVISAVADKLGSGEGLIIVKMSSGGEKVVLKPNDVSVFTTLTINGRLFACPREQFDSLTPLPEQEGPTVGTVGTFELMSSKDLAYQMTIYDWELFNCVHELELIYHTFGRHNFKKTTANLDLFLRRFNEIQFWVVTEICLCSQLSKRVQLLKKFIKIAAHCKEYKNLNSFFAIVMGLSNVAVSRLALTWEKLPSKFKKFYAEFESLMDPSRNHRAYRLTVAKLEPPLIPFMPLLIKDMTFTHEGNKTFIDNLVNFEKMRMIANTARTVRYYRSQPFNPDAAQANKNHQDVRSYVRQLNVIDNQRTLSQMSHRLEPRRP

**Q.** Which Potency does the source give for `CCc1nc2c(OCc3ccc(OC)cc3)cccn2c1N(C)C(=O)C(C)C` here?
**A.** inconclusive [inhibitor, full curve]

**Q.** With `COc1ccc(N=Cc2cc(Cc3ccccc3Cl)cc([N+](=O)[O-])c2O)cc1OC` as the compound, how does the Potency read?
**A.** inactive

**Q.** For `COc1ccc(C(=O)N[C@H](C(=O)Nc2ccc(S(=O)(=O)N3CCOCC3)cc2)C(C)C)cc1`, which Potency is on record?
**A.** inconclusive [inhibitor, single point]

**Q.** Which Potency does the source give for `Cc1ccsc1/C=N/NC(=O)c1ccc(-n2cccc2)cc1` here?
**A.** inconclusive [inhibitor, full curve, poor fit]

**Q.** Which Potency does the source give for `CCCCSc1nc2sc3c(c2c(=O)[nH]1)CC(C)(CC)OC3` (stereo not drawn) here?
**A.** inactive

**Q.** For `COc1ccc(C(=O)c2ccc(OC)c(OC)c2OC)cc1`, which Potency is on record?
**A.** inconclusive [inhibitor, partial curve]

**Q.** `Cc1ccc(SCCC(=O)N(C)C)cc1` was tested. Which Potency did it give?
**A.** inactive

**Q.** `COc1ccc2c(c1OC)C(=O)OC2` was tested. Which Potency did it give?
**A.** inactive

**Q.** How did the Potency turn out when `O=C(CCSCc1ccccc1Cl)N1CCN(c2ccccn2)CC1` was run?
**A.** inactive

**Q.** For `CN=C(Nc1ccc(C(=O)OC)s1)c1ccc(Cl)cc1`, which Potency is on record?
**A.** inconclusive [inhibitor, partial curve]

**Q.** For `COc1ccc(S(=O)(=O)Cc2ccc(C(=O)N3CCN(c4ccc(Cl)cc4)CC3)o2)cc1`, which Potency is on record?
**A.** inconclusive [inhibitor, full curve, poor fit]

**Q.** How did the Potency turn out when `CC1(Cc2cccc(C#N)c2)C(=O)Nc2ccc(-c3cccc(C(F)(F)F)c3)cc21` (stereo not drawn) was run?
**A.** inconclusive [inhibitor, full curve, poor fit]

**Q.** Which Potency does the source give for `Cc1ccc(S(=O)(=O)N2CCCCC2)cc1NC(=O)COC(=O)C1CC1` here?
**A.** inconclusive [inhibitor, single point]

**Q.** Which activity, negative = inhibition does the source give for `O=C(Nc1ccc(C(=O)O)cc1)/C(=C\C=C\c1ccccc1)NC(=O)c1ccc(Br)cc1` here?
**A.** inconclusive: -31.3% [inhibitor]

**Q.** With `O=C(Nc1ncccc1O)c1c(O)c2ccccc2[nH]c1=O` as the compound, how does the Potency read?
**A.** inconclusive [inhibitor, single point]

**Q.** For `C[C@H](CO)N1C[C@H](C)[C@@H](CN(C)CC2CCCCC2)Oc2c(NC(=O)CCC(F)(F)F)cccc2C1=O`, which Potency is on record?
**A.** inconclusive [inhibitor, full curve]

**Q.** With `CN(CCO)c1ccc2c(c1)OC[C@@H](Cc1ccccc1)NS2(=O)=O` as the compound, how does the Potency read?
**A.** inactive

**Q.** Which Potency does the source give for `CCOc1ccc(CCNC(=O)Cc2ccc(NC3=NC4CS(=O)(=O)CC4S3)cc2)cc1OCC` (stereo not drawn) here?
**A.** inactive

**Q.** `Cc1cc(SCNC(=O)c2ccccc2)nc(C(C)C)n1` was tested. Which Potency did it give?
**A.** inconclusive [inhibitor, partial curve]

**Q.** Which Potency does the source give for `CC(C)(C)NC(=O)[C@@H]1C[C@@H]2CCCC[C@@H]2CN1C[C@@H](O)[C@H](Cc1ccccc1)NC(=O)[C@H](CC(N)=O)NC(=O)c1ccc2ccccc2n1` here?
**A.** inconclusive [inhibitor, full curve, poor fit]

**Q.** How did the Potency turn out when `CCOC(=O)CSc1nc2ccccc2c(=O)n1CC(C)C` was run?
**A.** inconclusive [inhibitor, partial curve]

**Q.** Which Potency does the source give for `C[C@@H]1CCC(=O)N(CC[C@H](Sc2ccccc2)c2ccccc2)CC1` here?
**A.** inconclusive [inhibitor, partial curve]

**Q.** For `CC(C)CN1CCC(=O)N([C@H](CSc2ccccc2)Cc2ccccc2)CC1`, which Potency is on record?
**A.** inactive

**Q.** How did the Potency turn out when `CC(=O)N1CCC(C(=O)N2c3ccccc3N=C(c3ccc(C(F)(F)F)cc3)C2C(=O)NC(C)C)CC1` (stereo not drawn) was run?
**A.** inactive

**Q.** For `C=C1C(=O)OCC2C(C(=O)O)=CC3C(C)C(C)=CC123` (stereo not drawn), which Potency is on record?
**A.** inactive

**Q.** With `COC(=O)C1=C(C)OC(N)=C(C#N)C1c1ccccc1F` (stereo not drawn) as the compound, how does the Potency read?
**A.** inactive

**Q.** `CN(C)CCNC(=O)/C(=C/c1ccc(-c2ccc(Cl)cc2)o1)NC(=O)c1ccccc1` was tested. Which Potency did it give?
**A.** inactive

**Q.** How did the Potency turn out when `O=C(NC(c1ccc2c(c1)OCO2)c1ccccn1)C1CCN(CCOc2ccccc2)CC1` (stereo not drawn) was run?
**A.** inactive

**Q.** How did the Potency turn out when `CCOc1ccccc1NC(=O)c1nc(S(=O)(=O)Cc2cccc(C)c2)ncc1Cl` was run?
**A.** inconclusive [inhibitor, single point]

**Q.** With `CCc1ccc(-c2cc(C)no2)cc1S(=O)(=O)N1CCC(C)CC1` as the compound, how does the Potency read?
**A.** inconclusive [inhibitor, partial curve]

**Q.** For `C=CCN(c1ccc(F)cc1)S(=O)(=O)c1cc(C(=O)NC2CCC(O)CC2)ccc1Cl` (stereo not drawn), which Potency is on record?
**A.** inconclusive [inhibitor, partial curve]

**Q.** `O=C(Cc1cccs1)Nc1ccc(-c2nnc(-c3ccccc3)o2)cc1` was tested. Which Potency did it give?
**A.** inactive

**Q.** Which Potency does the source give for `CC[C@]12c3[nH]c4cc(CCC(=O)N(C)C)ccc4c3CCN1C(=O)[C@@H](CC(=O)NCc1cccc(C(F)(F)F)c1)C[C@@H]2C(=O)N1CCN(C(=O)C2CC2)CC1` here?
**A.** inactive

**Q.** `CCCCCCn1c(Br)nc2c1c(=O)n(C)c(=O)n2C` was tested. Which Potency did it give?
**A.** inconclusive [inhibitor, full curve]

**Q.** Which Potency does the source give for `CCCn1c(NCc2cccc(OC)c2O)nc2ccccc21` here?
**A.** inconclusive [inhibitor, single point]

**Q.** Which Potency does the source give for `N#Cc1cc(Br)ccc1N=C1CCCN1c1ccccc1` here?
**A.** inconclusive [inhibitor, full curve]

**Q.** For `COC(=O)CC(N)c1ccc(Br)cc1` (stereo not drawn), which Potency is on record?
**A.** inconclusive [inhibitor, single point]

**Q.** For `CCN1CCN(CCCNC(=O)c2ccc(/C=C3/Sc4ccccc4N(Cc4ccccc4F)C3=O)cc2)CC1`, which Potency is on record?
**A.** inconclusive [inhibitor, partial curve]

**Q.** `C1=C(CCNc2ncnc3nc[nH]c23)CCCC1` was tested. Which Potency did it give?
**A.** inactive

**Q.** Which Potency does the source give for `O=S(=O)(c1ccccc1)N(CC(F)(F)F)c1ccc(C(O)(C(F)(F)F)C(F)(F)F)cc1` here?
**A.** inconclusive [inhibitor, partial curve]

**Q.** How did the Potency turn out when `CCOc1cc(-c2n[nH]c(=S)n2Cc2ccccc2)ccc1OC(F)F` was run?
**A.** inconclusive [inhibitor, partial curve]

**Q.** Which Potency does the source give for `CCOc1cc(/C=C2\C(=N)N3N=C(S(=O)(=O)CC)SC3=NC2=O)ccc1OC(=O)c1ccco1` here?
**A.** inconclusive [inhibitor, partial curve]

**Q.** Which Potency does the source give for `CCc1ccc(-c2cc(C)no2)cc1S(=O)(=O)N1CCOc2ccc(C)cc21` here?
**A.** inconclusive [inhibitor, partial curve]
